{"source": "paper PMC6664820", "about": "“Novel natural and synthetic inhibitors of solute carriers SGLT1 and SGLT2” (Pharmacology Research & Perspectives, 2019)", "note": "Hit rate of the full screen: of about 1,900 compounds, about 40 (2%) showed an effect of 50% or more. The list shows a part of the results."}
{"target": "human SGLT1 (hSGLT1) (human, UniProt P13866)", "sequence (P13866 whole entry, looked up)": "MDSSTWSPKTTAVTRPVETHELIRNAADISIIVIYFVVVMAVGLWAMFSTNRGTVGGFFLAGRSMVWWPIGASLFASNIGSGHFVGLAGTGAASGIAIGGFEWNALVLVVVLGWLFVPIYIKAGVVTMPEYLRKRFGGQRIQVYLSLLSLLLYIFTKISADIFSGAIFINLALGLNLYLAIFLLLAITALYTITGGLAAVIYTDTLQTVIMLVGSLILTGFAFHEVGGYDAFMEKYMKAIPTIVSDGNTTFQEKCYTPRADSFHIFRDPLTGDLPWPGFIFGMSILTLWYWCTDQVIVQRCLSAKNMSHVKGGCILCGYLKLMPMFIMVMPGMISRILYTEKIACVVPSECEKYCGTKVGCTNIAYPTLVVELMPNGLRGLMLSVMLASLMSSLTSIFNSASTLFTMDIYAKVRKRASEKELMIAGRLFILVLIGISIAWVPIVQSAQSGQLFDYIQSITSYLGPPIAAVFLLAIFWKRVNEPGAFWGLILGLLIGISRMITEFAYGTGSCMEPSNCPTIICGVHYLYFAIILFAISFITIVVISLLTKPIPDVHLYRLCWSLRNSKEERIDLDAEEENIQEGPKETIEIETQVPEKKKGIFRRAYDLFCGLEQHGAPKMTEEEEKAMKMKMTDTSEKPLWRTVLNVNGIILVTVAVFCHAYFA", "assay": "primary screen, percent of control activity; higher = less effect of the substance", "design": "single well", "settings": "50 µM", "how_it_was_run": "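Single-point screen at 50 µmol/L in CHO-hSGLT1 cells, with 160 µmol/L 1-NBD-glucose in glucose-free DMEM for 90 min at 37°C. Fluorescence from isopropanol extracts was calibrated, and CHO wild-type uptake was subtracted. Data are percent of uptake without compound.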", "units": {"NORMALIZED SGLT1 ACTIVITY (%)": "%"}}
{"smiles": "COc1cc2c(c(OC)c1OC)-c1ccc(OC)c(=O)cc1[C@@H](NC(C)=O)CC2", "NORMALIZED SGLT1 ACTIVITY (%)": 104}
{"smiles": "CN1CCC(OC(c2ccccc2)c2ccccc2)CC1.Cl", "NORMALIZED SGLT1 ACTIVITY (%)": 63}
{"smiles": "O.O=C(O)[C@@H]1[C@H]2C[C@H]3c4[nH]c5ccccc5c4CCN3C[C@@H]2CC[C@@H]1O", "NORMALIZED SGLT1 ACTIVITY (%)": 96}
{"smiles": "O=c1[nH]c2ccccc2n1C1CCN(CCCC(c2ccc(F)cc2)c2ccc(F)cc2)CC1", "NORMALIZED SGLT1 ACTIVITY (%)": 101}
{"smiles": "CC1(C)C2CC(=O)[C@]3(C)C(CC[C@@]4(C)[C@H](c5ccoc5)OC(=O)[C@H]5O[C@]543)[C@@]2(C)C=C[C@@H]1O", "note": "(some centres unmarked)", "NORMALIZED SGLT1 ACTIVITY (%)": 158}
{"smiles": "CC(=O)Oc1cccc2c1C(=O)c1c(OC(C)=O)cc(C(=O)O)cc1C2=O", "NORMALIZED SGLT1 ACTIVITY (%)": 124}
{"smiles": "COc1ccc(-c2c(O)c3c(OC)c4c(cc3oc2=O)OC(C)(C)CC4)cc1", "NORMALIZED SGLT1 ACTIVITY (%)": 183}
{"smiles": "C[CH2][Hg][S]c1ccccc1C(=O)[O-].[Na+]", "NORMALIZED SGLT1 ACTIVITY (%)": 348}
{"smiles": "NC(C(=O)O)C(O)C(=O)O", "note": "(centres unmarked)", "NORMALIZED SGLT1 ACTIVITY (%)": 98}
{"smiles": "CCC(=O)NCC[C@@H]1CCc2ccc3c(c21)CCO3", "NORMALIZED SGLT1 ACTIVITY (%)": 87}
{"smiles": "Cc1cccc(N(C)C(=S)Oc2ccc3ccccc3c2)c1", "NORMALIZED SGLT1 ACTIVITY (%)": 122}
{"smiles": "CC(C)=CCCC1(C)C=Cc2c(O)c3c(c(CC=C(C)C)c2O1)OC12C(=CCCC1C(C)(C)O[C@@]2(C/C=C(\\C)C(=O)O)C(=O)O)C3=O", "note": "(some centres unmarked)", "NORMALIZED SGLT1 ACTIVITY (%)": 39}
{"smiles": "Nc1nc(N)c2nc(-c3ccccc3)c(N)nc2n1", "NORMALIZED SGLT1 ACTIVITY (%)": 205}
{"smiles": "COc1cc(C(C)=O)cc(OC)c1O", "NORMALIZED SGLT1 ACTIVITY (%)": 144}
{"smiles": "CC(CCC(=O)O)[C@H]1CCC2C3CC[C@@H]4C[C@H](O)CC[C@]4(C)C3CC[C@@]21C", "note": "(some centres unmarked)", "NORMALIZED SGLT1 ACTIVITY (%)": 361}
{"smiles": "COC(=O)C1=CO[C@@H](O[C@@H]2O[C@H](CO)[C@@H](O)[C@H](O)[C@H]2O)[C@@H]2[C@@H](C)[C@@H](O)C[C@H]12", "NORMALIZED SGLT1 ACTIVITY (%)": 94}
{"smiles": "COC(=O)CC[C@@H](C)[C@H]1CC[C@H]2[C@@H]3CC[C@@H]4C[C@H](O)CC[C@]4(C)[C@H]3C[C@H](O)[C@]12C", "NORMALIZED SGLT1 ACTIVITY (%)": 231}
{"smiles": "CCCCCCNC(=O)n1cc(F)c(=O)[nH]c1=O", "NORMALIZED SGLT1 ACTIVITY (%)": 86}
{"smiles": "CN1CCCN=C1COC(=O)C(O)(c1ccccc1)C1CCCCC1.Cl", "note": "(centres unmarked)", "NORMALIZED SGLT1 ACTIVITY (%)": 43}
{"smiles": "Cl.OC(CCN1CCCCC1)(c1ccccc1)C1CCCCC1", "note": "(centres unmarked)", "NORMALIZED SGLT1 ACTIVITY (%)": 69}
{"smiles": "Oc1cc(O)c2c(c1)O[C@H](c1cc(O)c(O)c(O)c1)[C@H](O)[C@H]2c1c(O)cc(O)c2c1O[C@H](c1cc(O)c(O)c(O)c1)[C@H](O)[C@H]2c1c(O)cc(O)c2c1O[C@H](c1cc(O)c(O)c(O)c1)[C@H](O)C2", "NORMALIZED SGLT1 ACTIVITY (%)": 120}
{"smiles": "CCCCOc1ccc(OCCCN2CCOCC2)cc1.Cl", "NORMALIZED SGLT1 ACTIVITY (%)": 98}
{"smiles": "CC(C)C(C)/C=C/C(C)C1CCC2C3=CC=C4CC(O)CCC4(C)C3CCC21C", "note": "(centres unmarked)", "NORMALIZED SGLT1 ACTIVITY (%)": 303}
{"smiles": "Cc1cccc(C)c1NC1=NCCCS1", "NORMALIZED SGLT1 ACTIVITY (%)": 68}
{"smiles": "CCCCCCCCCCCCC[N+](C)(C)Cc1ccccc1.[Cl-]", "NORMALIZED SGLT1 ACTIVITY (%)": 40}
{"smiles": "Nc1ccc(S(=O)(=O)NC(=O)c2ccccc2)cc1", "NORMALIZED SGLT1 ACTIVITY (%)": 100}
{"smiles": "O=C(O[C@@H]1Cc2c(O)cc(O)cc2O[C@@H]1c1cc(O)c(O)c(O)c1-c1c([C@H]2Oc3cc(O)cc(O)c3C[C@H]2OC(=O)c2cc(O)c(O)c(O)c2)cc(O)c(O)c1O)c1cc(O)c(O)c(O)c1", "NORMALIZED SGLT1 ACTIVITY (%)": 99}
{"smiles": "CC(=O)O[C@]1(C)CC[C@@]23C[C@@H]1C(C)(C)[C@@H]2CC[C@H]3C", "NORMALIZED SGLT1 ACTIVITY (%)": 113}
{"smiles": "CCN1CCN(C(=O)N[C@@H](C(=O)N[C@@H]2C(=O)N3C(C(=O)O)=C(CSc4nnnn4C)CS[C@H]23)c2ccc(O)cc2)C(=O)C1=O", "NORMALIZED SGLT1 ACTIVITY (%)": 88}
{"smiles": "CO[C@@]12[C@H](COC(N)=O)C3=C(C(=O)C(C)=C(N)C3=O)N1C[C@@H]1N[C@@H]12", "NORMALIZED SGLT1 ACTIVITY (%)": 82}
{"smiles": "CC1=Nc2ccc(Cl)cc2S(=O)(=O)N1", "NORMALIZED SGLT1 ACTIVITY (%)": 208}
{"smiles": "C=C[C@H]1CN2CC[C@H]1C[C@@H]2[C@H](O)c1ccnc2ccccc12", "NORMALIZED SGLT1 ACTIVITY (%)": 81}
{"smiles": "O=C([O-])c1cc2cc(Cc3cccnc3)ccc2o1.[Na+]", "NORMALIZED SGLT1 ACTIVITY (%)": 96}
{"smiles": "Cc1onc(-c2c(Cl)cccc2Cl)c1C(=O)N[C@@H]1C(=O)N2[C@@H]1SC(C)(C)[C@@H]2C(=O)[O-].[Na+]", "NORMALIZED SGLT1 ACTIVITY (%)": 92}
{"smiles": "CCN(CCCCOC(=O)c1ccc(OC)c(OC)c1)C(C)Cc1ccc(OC)cc1.Cl", "note": "(centres unmarked)", "NORMALIZED SGLT1 ACTIVITY (%)": 76}
{"smiles": "Cc1nnc(NS(=O)(=O)c2ccc(N)cc2)s1", "NORMALIZED SGLT1 ACTIVITY (%)": 116}
{"smiles": "CC(=O)OCC(=O)[C@@]1(O)CCC2C3CCC4=CC(=O)CC[C@]4(C)C3C(=O)C[C@@]21C", "note": "(some centres unmarked)", "NORMALIZED SGLT1 ACTIVITY (%)": 128}
{"smiles": "COc1ccc(-c2coc3cc(O)ccc3c2=O)c(OC)c1O", "NORMALIZED SGLT1 ACTIVITY (%)": 132}
{"smiles": "Cc1oncc1C(=O)Nc1ccc(C(F)(F)F)cc1", "NORMALIZED SGLT1 ACTIVITY (%)": 253}
{"smiles": "CCCc1occc(=O)c1/C=C/O", "NORMALIZED SGLT1 ACTIVITY (%)": 172}
{"smiles": "COc1cc2nc(N3CCN(C(=O)c4ccco4)CC3)nc(N)c2cc1OC.Cl", "NORMALIZED SGLT1 ACTIVITY (%)": 131}
